Measured values from the supplement of paper PMC10126150.
Values marked as one replicate rest on one cluster of the flow cell; about a third of the high ones do not repeat.

These sequences were tested on ATP (assay: switch fluorescence ratio, 500 uM ATP over buffer (Cy3 cluster intensity, sum of 5 cycles each) (fold (ratio)); higher = stronger signal-on switching upon ATP binding; sequences stand for … in TCGTCGGCAGCGTCAGATGTGTATAAGAGACAGTTTTTTTTTTTTTTTTTTTTTTTTT…TC). Settings: aptamer strand: ATP DNA aptamer (quencher-CACCTGGGGGAGTATTGCGGAGGAAGG + anchor), 100 nM annealed; ATP concentration: 500 uM; one replicate.
In short: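 Cy3-labelled switching-strand clusters on a modified Illumina MiSeq flow-cell were annealed to 100 nM quencher-labelled ATP aptamer and imaged first in selection buffer, then after 15 min with 500 uM ATP at 22 °C. NaOH stripping and re-annealing separated each of five buffer/ATP cycles, and clusters outside 100-1000 RFU were excluded. The fluorescence ratio sums target-cycle Cy3 intensity over buffer-cycle Cy3 intensity per cluster and averages it per switch-domain sequence.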
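Also: ATP exposure 15 min at 22 °C before imaging.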

| Sequence | switch fluorescence ratio |
| --- | --- |
| GAACCCTCTT | 1.08 |
| GAACCGAGTT | 0.978 |
| GAACCGGAG | 1.05 |
| GAACCGGCA | 1.1 |
| GAACCTGTTG | 1.03 |
| GAACGAAATT | 1.02 |
| GAACGAGCCA | 0.99 |
| GAACGCAAAA | 2.72 |
| GAACGCAGCG | 0.997 |
| GAACGGACAG | 1.34 |
| GAACGGAGAG | 1.06 |
| GAACGGATCT | 1.03 |
| GAACGGG | 0.96 |
| GAACGTCGAC | 1.07 |
| GAACGTCTGG | 1.06 |
| GAACTATATC | 1.02 |
| GAACTATATG | 0.976 |
| GAACTATTGA | 1.01 |
| GAACTGGCAC | 1.06 |
| GAACTTAC | 1.32 |
| GAACTTGGAC | 1.02 |
| GAAGAAATGG | 1.06 |
| GAAGAAGAAC | 1.03 |
| GAAGACTAGG | 1.12 |
| GAAGAGGTGG | 0.977 |
| GAAGCCAGGG | 1.13 |

| Sequence | switch fluorescence ratio |
| --- | --- |
| GAAGCGCGGC | 1.06 |
| GAAGCGGGCC | 1.21 |
| GAAGCGTCTC | 1.11 |
| GAAGCTTTGA | 1 |
| GAAGGACGTA | 1.05 |
| GAAGGCAATA | 1.06 |
| GAAGGCTAGT | 1.02 |
| GAAGGGAGTT | 0.983 |
| GAAGGTACAA | 1.05 |
| GAAGGTGCGT | 1.04 |
| GAAGGTGGGT | 0.981 |
| GAAGTAAG | 0.971 |
| GAAGTAGATT | 0.994 |
| GAAGTCACTG | 0.971 |
| GAAGTGACAT | 1.01 |
| GAAGTGCTCC | 1.21 |
| GAAGTGGCG | 1.03 |
| GAATACATGT | 1.01 |
| GAATACGCGT | 0.984 |
| GAATACGGCA | 1.1 |
| GAATACTTGC | 1.05 |
| GAATATAGGC | 0.959 |
| GAATATTACT | 0.988 |
| GAATATTGGT | 0.99 |
| GAATCAGACA | 0.968 |
| GAATCCCCTT | 1.05 |

| Sequence | switch fluorescence ratio |
| --- | --- |
| GAATCCTTGT | 1.04 |
| GAATCGATTC | 1.02 |
| GAATCTAGGA | 1.02 |
| GAATGATATT | 0.994 |
| GAATGATCAA | 0.967 |
| GAATGCCTAG | 1.01 |
| GAATGGAATT | 0.982 |
| GAATGGTATT | 1.02 |
| GAATGGTGAT | 0.958 |
| GAATGTAAGC | 1.01 |
| GAATGTGGGA | 1.01 |
| GAATGTGTCG | 1.01 |
| GAATTATGCT | 0.963 |
| GAATTATGTG | 1.01 |
| GAATTCTGCC | 1.01 |
| GAATTGAGGA | 1.04 |
| GAATTGTGCG | 0.954 |
| GAATTTATTG | 1 |
| GAATTTGGGC | 1.01 |
| GAATTTTCAG | 0.991 |
| GAATTTTCTC | 1.03 |
| GAATTTTTCT | 1.01 |
| GACAAAAAGC | 0.998 |
| GACAAAAGCT | 1.06 |
| GACACACCTG | 1.14 |
| GACACAGGTT | 1.16 |

| Sequence | switch fluorescence ratio |
| --- | --- |
| GACACGACGG | 1.03 |
| GACACTAATG | 0.99 |
| GACACTGAAG | 1.03 |
| GACAGAGTAT | 1.08 |
| GACAGATTGG | 0.934 |
| GACAGCGCGC | 0.944 |
| GACATACGA | 1.41 |
| GACATATAGG | 0.835 |
| GACATCCTAT | 1.03 |
| GACATGAAGT | 0.997 |
| GACATGCGG | 1.07 |
| GACATGGAAA | 0.974 |
| GACATGGGTC | 0.978 |
| GACATGGTCA | 0.97 |
| GACATGTAGA | 0.986 |
| GACATTAAGA | 1.02 |
| GACATTTGGG | 0.946 |
| GACCACAAAT | 1.05 |
| GACCACTA | 1.21 |
| GACCACTTTT | 1.03 |
| GACCATCGTG | 1.1 |
| GACCATGGTA | 0.979 |
| GACCGAAATT | 0.988 |
| GACCGAGGAT | 1.01 |
| GACCGATTTC | 1.05 |
| GACCGCGGCC | 1.03 |

| Sequence | switch fluorescence ratio |
| --- | --- |
| GACCGCGGCG | 0.953 |
| GACCGCTCGC | 1.55 |
| GACCGTTATT | 1.06 |
| GACCTAGGT | 0.867 |
| GACCTATCCC | 1.15 |
| GACCTCTGGA | 1.03 |
| GACCTGCT | 1.02 |
| GACCTTTCAG | 1.01 |
| GACGAAGTAT | 1.05 |
| GACGAATCCC | 1.1 |
| GACGACCCCC | 2.09 |
| GACGACTTAT | 1.09 |
| GACGAGAACG | 1.1 |
| GACGATACTT | 1.44 |
| GACGCCTAGG | 1.05 |
| GACGCGATTT | 2.31 |
| GACGCGGCCG | 1.06 |
| GACGCTAGA | 3.7 |
| GACGGACCAC | 1.36 |
| GACGGATACT | 1.66 |
| GACGGCGCAC | 1.21 |
| GACGGGAGGC | 1.09 |
| GACGGGGGAC | 1.53 |
| GACGGGTAAG | 0.989 |
| GACGGGTCGG | 0.983 |
| GACGGGTTCT | 0.982 |

| Sequence | switch fluorescence ratio |
| --- | --- |
| GACGGTTCGA | 0.974 |
| GACGTAGGGG | 0.999 |
| GACGTCATTA | 1.03 |
| GACGTCGTGC | 1.02 |
| GACGTTAGTC | 0.997 |
| GACGTTGAT | 0.986 |
| GACGTTTCGA | 0.993 |
| GACGTTTGTC | 0.932 |
| GACTAAGCGA | 1.66 |
| GACTACAGGC | 1.04 |
| GACTATCGTG | 1.03 |
| GACTATGGGC | 0.991 |
| GACTCCAAA | 0.999 |
| GACTCCATAT | 1.25 |
| GACTCCCTGA | 1.22 |
| GACTCCTTTT | 1.08 |
| GACTCGCATT | 3.31 |
| GACTCGGCTT | 0.981 |
| GACTCGGGTA | 1.02 |
| GACTCTAGCG | 1.04 |
| GACTCTGCGT | 1.71 |
| GACTGAGCG | 0.962 |
| GACTGAGGCT | 1.01 |
| GACTGAGTTT | 0.984 |
| GACTGCACTA | 1.52 |
| GACTGCAGAT | 1.11 |

| Sequence | switch fluorescence ratio |
| --- | --- |
| GACTGCGCTG | 0.96 |
| GACTGTGCGT | 1.01 |
| GACTTAACTA | 1.05 |
| GACTTATTGT | 0.988 |
| GACTTCATTT | 0.954 |
| GACTTGATGG | 1 |
| GACTTGGAAG | 0.994 |
| GACTTGGACT | 1.01 |
| GACTTGTGAT | 0.973 |
| GACTTTATGT | 0.994 |
| GACTTTGTCC | 0.973 |
| GAGAAAGCAA | 1.09 |
| GAGAAATACA | 1.07 |
| GAGAACCGTA | 1.05 |
| GAGAACGTTT | 1.03 |
| GAGAAGAGAG | 0.959 |
| GAGAAGCAGA | 1.01 |
| GAGAAGTATG | 1.04 |
| GAGAAGTTTC | 1.06 |
| GAGAATATTT | 1.01 |
| GAGAATCCA | 1.03 |
| GAGAATTTAC | 1.03 |
| GAGACAATTT | 0.986 |
| GAGACCCCTG | 1 |
| GAGACCGTCG | 0.919 |
| GAGACCGTTA | 1.02 |

| Sequence | switch fluorescence ratio |
| --- | --- |
| GAGAGACACC | 0.953 |
| GAGAGAGCCG | 0.972 |
| GAGAGTACCG | 1.02 |
| GAGAGTGGTA | 0.993 |
| GAGAGTTGGA | 0.95 |
| GAGATACTAA | 0.997 |
| GAGATATACG | 0.98 |
| GAGATCATAG | 1.02 |
| GAGATCCCAC | 1 |
| GAGATCGGAC | 0.992 |
| GAGATGATGG | 1.02 |
| GAGATGGCTA | 0.965 |
| GAGATGTCTG | 0.985 |
| GAGCAAACGT | 1.24 |
| GAGCAATGTA | 1.33 |
| GAGCACAAAA | 1.08 |
| GAGCACCCAA | 1.02 |
| GAGCAGCCGA | 0.975 |
| GAGCAGGCTC | 1.04 |
